Experimental findings from PubChem BioAssay (NCATS) are described below.

Some of the results follow. Further columns of the screen follow, without active or inactive calls. The list favours compounds with an active or inconclusive main result. Words in brackets tell the shape of the fitted curve; partial curves, single points and poor fits give uncertain potencies.

The target of the test is Nicotinamide N-methyltransferase (Homo sapiens) (UniProt P40261). As to the kind of experiment: Confirmatory Screen for Target Class Profiling of Small Molecule Inhibitors of Methyltransferases (AID 1745852).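 Note: inhibitor potency for blocking SAH production.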 To be noted: MTase-Glo luminescence, SAH detection, recombinant enzyme; measured here: NNMT inhibition potency.
Tags give direction and shape of the fitted curve.

UniProt P40261, sequence (P40261 whole entry, looked up): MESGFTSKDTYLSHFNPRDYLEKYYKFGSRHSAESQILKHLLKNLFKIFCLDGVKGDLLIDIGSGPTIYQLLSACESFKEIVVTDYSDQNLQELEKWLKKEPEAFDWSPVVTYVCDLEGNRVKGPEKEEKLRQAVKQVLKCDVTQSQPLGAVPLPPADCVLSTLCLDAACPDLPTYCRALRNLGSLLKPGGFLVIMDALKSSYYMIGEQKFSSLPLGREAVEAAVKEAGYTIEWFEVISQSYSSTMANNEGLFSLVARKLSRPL

The IC50 is the concentration that inhibits the measured activity by half. In the case of `CCCn1c(=O)c2ccccc2n2c(=O)n(CC(=O)c3cccc(Cl)c3)nc12`, the IC50 was 13.6 µM [falling, partial curve].
Under `COc1ccc(C(=O)N(CCC(C)C)Cc2nc(C)c(C)n2Cc2ccccc2C)c(OC)c1` stands 15.2 µM [falling, partial curve].
Under `Cc1ccn(-c2cc(Cl)ccc2[C@@H](Oc2cc(-c3ccc(C[C@H](N)C(=O)O)cc3)nc(N)n2)C(F)(F)F)n1` stands 21.5 µM [falling, partial curve]; under `CC1(C(=O)NC2CCCC2)Cn2c(c(-n3cccc3)c3ccccc32)C(=O)N1Cc1ccccn1` (stereo not given), 19.2 µM [falling, partial curve].
As for `C=C(F)c1sc(CNCCCNc2cc(=O)c3ccccc3[nH]2)c(C)c1Br`, the IC50 is 21.5 µM [falling, partial curve].
The same measure for `O=C(c1ccc(Cl)cc1)N1CCN(c2ccnc3cc(Cl)ccc23)CC1`: 27.1 µM [falling, single point]; for `CC1=CC(=O)[C@@]2(C(C)C)C[C@@H]12`: 24.1 µM [falling, single point].
On to `CC(C)Cn1c(=O)c2ccccc2n2c(CCC(=O)N3CCN(c4ccccc4)CC3)nnc12`, for which the IC50 is 21.5 µM [falling, partial curve].
The same measure for `C[C@H]1CN(C(=O)Nc2ccc(F)cc2F)C[C@@H]1c1nc(-c2ccccc2)no1`: 2.43 µM [falling, full curve]; for `CC(C)CCn1c(=O)c2ccccc2n2c(CCC(=O)N3CCN(c4cccc(Cl)c4)CC3)nnc12`: 6.81 µM [falling, full curve].
